The other results are listed elsewhere or left out.
tested on: HSkMC (human skeletal muscle cells); assay: cytotoxicity call (relative viability < 0.9); settings: 10 µM

| Compound | cytotoxicity call |
| --- | --- |
| C[C@H](CO)N1C[C@H](C)[C@H](CN(C)C(=O)Nc2ccc3c(c2)OCO3)Oc2ccc(NS(=O)(=O)c3cn(C)cn3)cc2CC1=O | inactive |
| N=C(N)Nc1nc(=O)c2ccccc2s1 | inactive |
| C[C@@H]1CN([C@H](C)CO)C(=O)c2cc(NS(=O)(=O)c3ccccc3)ccc2O[C@@H](C)CCCCO[C@@H]1CN(C)S(C)(=O)=O | inactive |
| CCNC(=O)N1CCN(CCO)CC1 | inactive |
| O=C(C[C@H]1CC[C@H]2[C@@H](COC[C@H](O)CN2Cc2ccccc2F)O1)N[C@H]1CCN(Cc2ccccc2)C1 | inactive |
| COc1ccc(C(=O)Nc2ccc(CN3C(=O)[C@]4(O[C@H](CC(=O)N(CCO)Cc5ccccc5)[C@@H]([Si](C)(C)c5ccc(OC)cc5)[C@@H]4C)c4ccccc43)cc2)cc1 | inactive |
| Cc1ccc(S(=O)(=O)Nc2ccc3c(c2)C(=O)N([C@H](C)CO)C[C@H](C)[C@H](CN(C)C(=O)CCC(F)(F)F)OCCCC[C@@H](C)O3)cc1 | inactive |
| C[C@@H]1CN([C@H](C)CO)C(=O)CCCn2nncc2CO[C@@H]1CN(C)C(=O)Nc1ccc(N2CCN(C)CC2)cc1 | inactive |
| O=S1(=O)C[C@H](NC[C@H]2C[C@@H]3C=C[C@H]2C3)[C@@H](O)C1 | inactive |

tested on: S. aureus RN4220; assay: growth inhibition call (relative growth <= 0.2); settings: 50 µM

| Compound | growth inhibition call |
| --- | --- |
| C[C@H]1CN([C@@H](C)CO)C(=O)CCCn2cc(nn2)CO[C@H]1CN(C)Cc1ccc2c(c1)OCCN2C | inactive |
| Cc1ccc(S(=O)(=O)N(C)C[C@H]2OCCCC[C@H](C)Oc3ccc(NC(=O)Nc4cccc5ccccc45)cc3C(=O)N([C@@H](C)CO)C[C@@H]2C)cc1 | inactive |
| COC(=O)[C@@H]1[C@@H](CO)[C@@H]2Cn3c(cccc3=O)[C@@H]2N1C(=O)C1CC1 | inactive |
| NC[C@@H](O)C1CCCCC1 | inactive |
| C[C@@H]1CN([C@@H](C)CO)C(=O)Cc2cc(NS(=O)(=O)c3cn(C)cn3)ccc2O[C@@H]1CN(C)S(=O)(=O)c1ccc(Cl)cc1 | inactive |
| C=C[C@](C)(O)CCC=C(C)C | inactive |
| COCC(=O)N1C[C@H](C)[C@@H](OC)CN(C)C(=O)c2cc(NC(=O)Nc3ccccc3)ccc2OC[C@@H]1C | inactive |
| COc1ccc(CN(C)C[C@H]2OCCCC[C@H](C)Oc3ccc(NC(=O)CCC(F)(F)F)cc3C(=O)N([C@@H](C)CO)C[C@H]2C)cc1 | inactive |
| COc1ccc(C(=O)Nc2ccc3c(c2)C(=O)N(C)[C@H]2CC[C@H](CC(=O)NCC4CC4)O[C@@H]2CO3)cc1 | inactive |
| C[C@@H]1CN([C@@H](C)CO)C(=O)c2cccc(NC(=O)Nc3ccc4c(c3)OCO4)c2O[C@H]1CN(C)Cc1ccc(Oc2ccccc2)cc1 | inactive |
| C[C@H](CO)N1C[C@H](C)[C@@H](CN(C)S(=O)(=O)c2ccc(Cl)cc2)OCCCC[C@H](C)Oc2ccc(NC(=O)Nc3ccccc3)cc2C1=O | inactive |
| COCC1=C(C(=O)OC(C)OC(=O)OC(C)C)N2C(=O)C(NC(=O)C(=NOC)c3csc(N)n3)C2SC1 (centres undefined) | inactive |
| CCCCOc1cc(C(=O)NCCN(CC)CC)c2ccccc2n1.Cl | inactive |
| COc1ccc(/C=C2/NC(=O)NC2=O)cc1 | inactive |
| O=C(C[C@H]1CC[C@H]2[C@@H](COC[C@H](O)CN2Cc2cc(F)ccc2F)O1)N[C@@H]1CCN(Cc2ccccc2)C1 | inactive |
| COc1ccc(NC(=O)Nc2cccc3c2O[C@@H](CN(C)Cc2ccc(-c4ccccc4)cc2)[C@H](C)CN([C@@H](C)CO)C3=O)cc1 | inactive |
| C[C@@H]1CN([C@@H](C)CO)C(=O)c2cc(NC(=O)Nc3ccc(C(F)(F)F)cc3)ccc2O[C@H]1CN(C)C(=O)Nc1ccc(C(F)(F)F)cc1 | inactive |
| C=CC[C@H](CC(=O)NCCO)C(=O)NC[C@@H](OC(=O)[C@@H](CC=C)CC(=O)OC(C)(C)C)c1ccccc1 | inactive |
| COc1ccc(NC(=O)Nc2ccc3c(c2)C(=O)N([C@H](C)CO)C[C@H](C)[C@H](CN(C)Cc2ccc(C(F)(F)F)cc2)OCCCC[C@H](C)O3)cc1 | inactive |
| C[C@@H]1CN([C@@H](C)CO)C(=O)c2cccc(NC(=O)c3ccc(-c4nccs4)cc3)c2O[C@@H]1CN(C)Cc1ccc(Oc2ccccc2)cc1 | inactive |

| Compound | growth inhibition call |
| --- | --- |
| N[C@H]1CCC[C@@H]1Cc1ccc(F)cc1 | inactive |
| Cn1c(=O)c2[nH]c(C3CCCC3)nc2n(C)c1=O | inactive |
| CO[C@H]1CN(C)C(=O)c2cc(NS(=O)(=O)CC(F)(F)F)ccc2OC[C@H](C)N(Cc2ccccn2)C[C@@H]1C | inactive |
| C[C@H]1CCCCO[C@@H](CN(C)S(=O)(=O)c2ccc(F)cc2)[C@@H](C)CN([C@@H](C)CO)C(=O)c2cc(NC(=O)Nc3ccc(F)cc3)ccc2O1 | inactive |
| C[C@@H]1CN([C@H](C)CO)C(=O)Cc2cc(NS(=O)(=O)c3ccccc3)ccc2O[C@@H]1CN(C)S(C)(=O)=O | inactive |
| CCCC#Cc1ccc2c(c1)O[C@@H](CN(C)S(=O)(=O)c1cccc(OC)c1)[C@@H](C)CN([C@@H](C)CO)S2(=O)=O | inactive |
| C[C@@H]1CN([C@@H](C)CO)C(=O)Cc2cc(NC(=O)CCCN(C)C)ccc2O[C@@H]1CN(C)S(=O)(=O)c1ccc(Cl)cc1 | inactive |
| COc1cccc(S(=O)(=O)Nc2ccc3c(c2)[C@H]2C[C@H](CC(=O)N4CCCCC4)O[C@H](CO)[C@H]2O3)c1 | inactive |
| N=c1c(C(=O)NC[C@H]2CCCO2)cc2c(=O)n3ccccc3nc2n1CCCN1CCOCC1 | inactive |
| COc1cc(F)c(C(C)C)cc1-c1ccc(C(F)(F)F)cc1CN1C(=O)O[C@H](c2cc(C(F)(F)F)cc(C(F)(F)F)c2)[C@@H]1C | inactive |
| Cc1noc(C)c1S(=O)(=O)Nc1ccc2c(c1)C(=O)N([C@H](C)CO)C[C@H](C)[C@H](CN(C)C(=O)Nc1ccccc1)O2 | inactive |
| C[C@H](CO)N1C[C@H](C)[C@H](CN(C)C(=O)Nc2ccc3c(c2)OCO3)Oc2ccc(NS(=O)(=O)c3cn(C)cn3)cc2CC1=O | inactive |
| N=C(N)Nc1nc(=O)c2ccccc2s1 | inactive |
| C[C@@H]1CN([C@H](C)CO)C(=O)c2cc(NS(=O)(=O)c3ccccc3)ccc2O[C@@H](C)CCCCO[C@@H]1CN(C)S(C)(=O)=O | inactive |
| CCNC(=O)N1CCN(CCO)CC1 | inactive |
| O=C(C[C@H]1CC[C@H]2[C@@H](COC[C@H](O)CN2Cc2ccccc2F)O1)N[C@H]1CCN(Cc2ccccc2)C1 | inactive |
| COc1ccc(C(=O)Nc2ccc(CN3C(=O)[C@]4(O[C@H](CC(=O)N(CCO)Cc5ccccc5)[C@@H]([Si](C)(C)c5ccc(OC)cc5)[C@@H]4C)c4ccccc43)cc2)cc1 | inactive |
| Cc1ccc(S(=O)(=O)Nc2ccc3c(c2)C(=O)N([C@H](C)CO)C[C@H](C)[C@H](CN(C)C(=O)CCC(F)(F)F)OCCCC[C@@H](C)O3)cc1 | inactive |
| C[C@@H]1CN([C@H](C)CO)C(=O)CCCn2nncc2CO[C@@H]1CN(C)C(=O)Nc1ccc(N2CCN(C)CC2)cc1 | inactive |
| O=S1(=O)C[C@H](NC[C@H]2C[C@@H]3C=C[C@H]2C3)[C@@H](O)C1 | inactive |

Source: the antibiotic and cytotoxicity screens of Wong et al. (2023)
